Experimental data from paper PMC4336329 (PLoS ONE, 2015).
The whole screen tested about 310,000 compounds, of which about 2,200 (0.71%) showed an effect of 50% or more. The effect is printed as a negative number. The list shows a part of the results.

Target: human ether-à-go-go-related gene (hERG) potassium channel (human, UniProt Q12809)
Assay: primary screen, population patch clamp on CHO cells stably expressing hERG

human ether-à-go-go-related gene (hERG) potassium channel, sequence (Q12809 whole entry, looked up): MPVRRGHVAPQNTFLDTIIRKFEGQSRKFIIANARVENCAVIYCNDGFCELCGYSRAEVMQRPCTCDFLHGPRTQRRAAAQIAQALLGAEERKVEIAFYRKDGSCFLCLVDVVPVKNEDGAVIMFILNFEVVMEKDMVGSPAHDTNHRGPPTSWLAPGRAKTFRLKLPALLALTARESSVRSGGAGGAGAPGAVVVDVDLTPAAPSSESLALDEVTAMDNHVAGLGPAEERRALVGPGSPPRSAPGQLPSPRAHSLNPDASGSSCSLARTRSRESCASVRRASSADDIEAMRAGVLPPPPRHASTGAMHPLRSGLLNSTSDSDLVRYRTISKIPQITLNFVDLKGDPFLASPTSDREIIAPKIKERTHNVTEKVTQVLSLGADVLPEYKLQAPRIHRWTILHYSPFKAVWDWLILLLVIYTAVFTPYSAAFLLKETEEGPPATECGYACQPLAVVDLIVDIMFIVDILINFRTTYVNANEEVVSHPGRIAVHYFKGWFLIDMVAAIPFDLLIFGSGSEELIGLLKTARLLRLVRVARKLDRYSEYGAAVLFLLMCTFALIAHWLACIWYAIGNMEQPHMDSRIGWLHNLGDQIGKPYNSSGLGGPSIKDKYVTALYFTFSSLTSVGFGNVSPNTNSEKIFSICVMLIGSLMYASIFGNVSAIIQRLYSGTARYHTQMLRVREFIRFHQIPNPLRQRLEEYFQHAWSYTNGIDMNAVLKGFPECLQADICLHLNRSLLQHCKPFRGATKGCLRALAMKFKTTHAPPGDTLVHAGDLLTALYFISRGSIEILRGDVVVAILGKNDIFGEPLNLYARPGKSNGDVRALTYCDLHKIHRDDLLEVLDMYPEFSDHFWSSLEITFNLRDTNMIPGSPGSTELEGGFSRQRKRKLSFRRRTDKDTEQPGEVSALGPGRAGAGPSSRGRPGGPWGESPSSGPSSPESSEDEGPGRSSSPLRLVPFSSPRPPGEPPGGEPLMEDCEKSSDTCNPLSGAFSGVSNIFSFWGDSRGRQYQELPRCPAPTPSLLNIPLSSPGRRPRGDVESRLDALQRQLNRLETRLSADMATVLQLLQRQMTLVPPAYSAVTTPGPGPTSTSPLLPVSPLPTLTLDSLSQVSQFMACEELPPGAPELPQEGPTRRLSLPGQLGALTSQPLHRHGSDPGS

SMILES	hERG current change (%, negative = inhibition) at 1uM [%]
COC(=O)c1sc2ncn(CC(=O)NCCc3ccc(OC)c(OC)c3)c(=O)c2c1C	8.82
Cc1ccc(N=C(c2cccs2)N2CCOCC2)cc1	10.5
CN1CCN(C2OC(=O)c3ccccc32)CC1 (centres unmarked)	-7.97
CC(=O)Nc1ccc(S(=O)(=O)NC(C(=O)O)C(C)O)cc1 (centres unmarked)	7.99
CN(C)c1ccc(NS(=O)(=O)c2cc(Cl)ccc2Cl)cc1	13.3
O=C(CNC(=O)c1ccc(S(=O)(=O)N2CCCC2)cc1)N/N=C/c1ccco1	10.9
CSc1nnc2ccc(-c3ccc(C)cc3)nn12	3.76
O=C(CCCCCn1c(=S)[nH]c2ccc(N3CCOCC3)cc2c1=O)NCc1cccc(Cl)c1	6.17
CCOC(=O)C(=O)Nc1ccc2c(c1)OCO2	5.63
O=C(/C=C/c1ccccc1)NC1CC2CCCC(C1)N2Cc1ccccc1 (centres unmarked)	-46.4
O=c1c2ccccc2c(-c2ccccc2)nn1-c1ccccn1	8.68
CC(=O)c1cc(CN2CCN(Cc3ccccc3)C(CCO)C2)cs1 (centres unmarked)	6.67
COC(=O)NCC(c1cccnc1)N1CCN(c2ccccc2)CC1 (centres unmarked)	2.56
COc1ccc(OCC#CCN2CCC(C)CC2)cc1.O=C(O)C(=O)O	4.86
Cc1cccc2c(=O)oc(-c3ccccc3Cl)nc12	11
COc1ccc(C2CC(c3c(-c4ccccc4)c4cc(Cl)ccc4[nH]c3=O)=NN2C(=O)CCC(=O)O)cc1 (centres unmarked)	9.98
C/C(=N\Nc1nc2ccccc2[nH]1)c1ccccn1	-55.5
COc1ccc(/C=N/N2CCN(c3ccc(Cl)cc3)CC2)cc1	17.1
COC(=O)c1sc(S(=O)(=O)NC(C)C(=O)O)c(C(=O)OC)c1C (centres unmarked)	-4.83
CC(C)(C)NCC1(CO)SC(N)=NC1=O.O.O=S(=O)(O)O (centres unmarked)	11.1
CNC(=O)CSc1nnc(-c2ccccn2)n1Cc1ccco1	3.09
Cn1c(O)c(C=Nc2ccccc2)c(=O)n(C)c1=O	8.14
Cc1ccccc1NC(=O)CCCCCN1C(=O)[C@@H]2Cc3ccccc3CN2C1=O	-1

SMILES	hERG current change (%, negative = inhibition) at 1uM [%]
O=C(CCNC(=O)C1CCN(S(=O)(=O)c2ccc(F)cc2)CC1)NC1CC1	6.19
O=C(NC(=S)N1CCN(Cc2ccccc2)CC1)c1ccccc1	5.95
O=C(COc1ncnc2ccccc12)N1CCOCC1	7.29
COc1ccccc1NC(=O)COc1ccccc1C(=O)Nc1ccccc1	9.6
Cc1ccc(-c2cc(C(=O)Nc3cccnc3)[nH]n2)c(O)c1C	8.35
CCCC(C)C(=O)Nc1nc(C)c(-c2csc(Nc3cc(OC)ccc3OC)n2)s1 (centres unmarked)	14.5
Cc1ccc(NC(=O)CCc2c(C)nc3ncnn3c2C)cc1	5.78
Cc1cc(Cl)ccc1NNC(=O)c1snnc1C	7.02
COC(=O)CSc1nc(NC(C)C)nc(N2CCOCC2)n1	-1.9
Cn1c(=O)c2c(SCC(=O)N3CCOCC3)nc(C3CCCCC3)nc2n(C)c1=O	9.63
COC(=O)c1ccc(C)c(NC(=O)CCSc2ccc(C)cc2)c1	-1.11
CC(C)(C#N)NC(=O)C1CCCN1S(=O)(=O)c1ccc2ccccc2c1 (centres unmarked)	5.69
O=C(N/N=C/c1coc2ccccc2c1=O)c1cc(Br)c(O)c(Br)c1	12.9
Cc1ccc(OCc2cc(C(=O)N3CCCC(O)C3)no2)cn1 (centres unmarked)	5.21
O=C(Cc1cccs1)NCc1ccc(Cl)cc1	8.15
CCCCOc1ccc(C(=O)N/C(=C/C=C/c2ccccc2)C(=O)NCCO)cc1	-1.05
Cc1ccccc1-n1ncc(C(C)NC(=O)c2ccco2)c1C (centres unmarked)	12.3
CC(=O)c1sc(NC(=O)COc2ccc([N+](=O)[O-])cc2)nc1C	11.8
C[C@@H]([C@H](O)c1ccccc1)N(C)C(=S)Nc1ccccc1	15.7
Cc1ccc(CN2CCCN(Cc3ccc(Cl)cc3)S2(=O)=O)cc1	18.2
CC(=O)Nc1ccc(NC(=O)c2ccccc2F)cc1	1.81
O=C1NC(=S)N/C1=C/c1cc2c(cc1[N+](=O)[O-])OCO2	17.2
O=C(NCCCn1ccnc1)C1CC(c2cccc(Br)c2)=NO1 (centres unmarked)	-5.44

SMILES	hERG current change (%, negative = inhibition) at 1uM [%]
COc1ccc(/C=C/c2n[nH]c(=O)c(C#N)c2C)cc1	6.14
OC1/C(=C/c2ccc(F)cc2)N2CCC1CC2 (centres unmarked)	8.33
CC(OC(=O)CN1C(=O)c2ccccc2C1=O)C(=O)NCc1ccccc1 (centres unmarked)	9.26
CCn1ccnc1CNCc1cn(-c2cc(C)ccc2C)nc1-c1ccccc1	-9.33
O=C(Nc1ccc(COc2ccccc2)cc1)Nc1cccc(C(=O)O)c1	8.02
CN(Cc1cccs1)C(=O)c1cc(S(=O)(=O)N2CCOCC2)ccc1N1CCCC1	7.03
COc1ccc(OC)c(NS(=O)(=O)Cc2ccccc2)c1	4.14
O=C(CSc1nnc(-c2ccc(F)cc2)o1)Nc1ccccc1N1CCOCC1	-0.758
Cc1ccccc1NC(=O)C1CCCN1S(=O)(=O)c1cccc2cccnc12 (centres unmarked)	-1.4
CCOC(=O)C1CCCN(c2nc(C)nc3c2oc2ccccc23)C1.Cl (centres unmarked)	8.69
COc1cc(/C=C2/NC(=O)NC2=O)cc(Br)c1OCc1ccccc1	-4.73
Cc1ccc(C)c(NC(=S)N2CCN(c3cccc(C(F)(F)F)c3)CC2)c1	14.7
O=C(CN1C(=O)C2CC=C(Cl)CC2C1=O)NCc1ccccc1 (centres unmarked)	1.61
COc1cccc2[nH]c3c(N4CCC(C(N)=O)CC4)ncnc3c12	13.1
Cc1csc2c(NC3CCN(Cc4ccccc4)CC3)ncnc12	9.59
CCCCCC(=O)NC(=S)Nc1ccc(NC(=O)c2ccco2)cc1	8.13
O=C(CCCN=C1NS(=O)(=O)c2ccccc21)OCC(=O)N1CCc2ccccc21	13.1
Cc1cc(NCCNC2=CC(=O)CCC2)nc2ccccc12	-1.44
CC(=O)NN(O)C1N(C)C(=O)N(Cc2ccccc2)C1(C)C (centres unmarked)	12.6
COc1cc(OC)c(OC)cc1/C=C1/Cc2ccccc2C1=O	10.2
CCCC1=NN2C(=N)/C(=C\c3cc(C)n(Cc4ccccc4)c3C)C(=O)N=C2S1	10.6
COc1cccc(NC(=O)CCc2nnc3ccc(N4CCC(C)CC4)nn23)c1	10.3
CC(C)(C)NC(=O)NC(=O)COC(=O)CNC(=O)c1cc(Cl)cc([N+](=O)[O-])c1	8.37

SMILES	hERG current change (%, negative = inhibition) at 1uM [%]
CCc1nnc(NC(=O)CCC(=O)NCc2ccc(C)cc2)s1	-12
COc1ccc(S(=O)(=O)Nc2c(C)cc(C)cc2C)c2cccnc12	7.05
Cc1cccc(C)c1OCC(=O)Nc1ccc2c(c1)OCCO2	13.2
CC(=O)Nc1cccc(NC(=O)CCn2cnc3cc(C)c(C)cc32)c1	-4.85
CCOC(=O)COc1ccc2cc(C(=O)OCC)c(=O)oc2c1	1.79
S=c1[nH]nc(Cn2c(-c3ccccn3)nc3ccccc32)n1-c1ccc2c(c1)OCCO2	16.3
CN(CC(=O)NCCc1ccccc1)S(=O)(=O)c1ccccc1	10.5
CC(C)(C)C(=O)NC(=S)Nc1ccccc1C(=O)NC1CCCCC1	-19.3
Cn1c(N)c(C(=O)COC(=O)CSc2ccccc2)c(=O)n(C)c1=O	-9.75
COC(=O)C1=C(c2ccc(F)cc2OCc2ccccc2)C[C@@H]2CC[C@H]1N2C(=O)NC1CCCCC1	10.7
Nc1nc(-c2ccco2)nn1C(=O)c1cccnc1	14.4
COc1ccc(C(=O)Nc2ccc3nc(N4CCOCC4)sc3c2)cc1OC	2.38
CCCc1cc(=O)[nH]c(/N=C(/NC(=O)c2ccccc2)Nc2ccc3c(c2)OCCO3)n1	12.1
CCOC(=O)N1CCC(NC(=O)CCC(=O)N2CC(C)Oc3ccc(Cl)cc32)CC1 (centres unmarked)	3.73
O=C(NCC1CCN(Cc2ccc(Cl)cc2)CC1)C1CCCN(c2ncnc3c2nc2n3CCCCC2)C1 (centres unmarked)	-1.72
CCN(CC)S(=O)(=O)c1ccc(N/N=C/c2ccc(O)cc2)nc1	12.2
Cc1cc(NC(=O)COC(=O)C2=COCCO2)c([N+](=O)[O-])cc1C	13.4
Cl.O=C(c1ccco1)N1CCN(C(c2ccccc2Cl)c2nnnn2CC2CCCO2)CC1 (centres unmarked)	-2.23
CCOc1cc(N2CCOCC2)c(OCC)cc1NC(=O)CSc1nc(N)cc(=O)[nH]1	9.65
COc1cccc(C(=O)Nc2nnc(S(=O)(=O)N(C)c3ccccc3)s2)c1	12.3
